# Screen size: about 48,000 compounds; about 120 (0.25%) were called active. Not shown: some 4% with an inconclusive outcome. The call rests on the fitted dose curve; in most records, active means well fitted activation curve with a large enough effect; inconclusive means small, poorly fitted or top-dose-only effect, or another doubt; inactive means no such curve, though single readings can be large or run the other way. The list shows a part of the results.
# Assay: Primary qHTS for Identification of Small Molecule Activators of Huntingtin-Antisense Promoter Activity; further: nearly all actives have a fitted effect of over 55% in size
# Settings: HEK293 HTT-AS promoter firefly luciferase reporter, 24 h; series mostly up to 57.5 µM; activity change, positive = activation: at the top concentration
# Method in brief: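 HEK293 cells carrying firefly luciferase reporters were seeded at 2,500 per well in Opti-MEM and cultured for 24 h. They were then treated with compounds at up to 57.5 uM final for 24 h at 37 degrees C before Dual-Glo luminescence readout.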
# Potency means the concentration at half of the fitted maximal effect.
Structure (SMILES),"activity change, positive = activation",Potency
CCc1ccc(C2c3c(oc4cc(C)c(C)cc4c3=O)C(=O)N2c2nc(C)c(C(=O)OC)s2)cc1 (stereo not given),inactive: 1.18%,
Cc1cc(C)cc(NC(=O)CSc2nc3sc4c(c3c(=O)[nH]2)CCCC4)c1,inactive: -3.25%,
CCC1CN(C(=O)Nc2cc(Cl)c(OC)cc2OC)c2ccccc2O1 (stereo not given),inactive: -20.1%,
COc1ccc(-c2noc(CC(=O)Nc3ccc(C)c(F)c3)n2)cc1,inactive: -4.75%,
COc1cc(OC)c(C2C(C(=O)Nc3ccccc3)=C(C)Nc3ncnn32)cc1OC (stereo not given),inactive: 0.195%,
CCCCC1CCC(C(=O)N2CC(=O)Nc3ccc(Br)cc3C2c2ccc(F)cc2)CC1 (stereo not given),inactive: -20.3%,
COC(=O)COc1ccc(-c2nnc(Nc3ccc(O)cc3)c3ccccc23)cc1,inactive: -34.1%,
CCc1ccc(S(=O)(=O)c2nnn3c2nc(N2CCN(c4ccccc4)CC2)c2cc(Cl)ccc23)cc1,inactive: 20.6%,
Cc1cccc2c1-c1sc(C(=O)Nc3ccc(F)cc3F)cc1CO2,inactive: -2.83%,
CCN(CC)C(=O)Cn1c(=O)n(CCCCCC(=O)NCc2ccc3c(c2)OCO3)c(=O)c2sccc21,inactive: -22.6%,
CCC(=O)OCc1cc(=O)n2nc(C3CC3)sc2n1,inactive: 12.6%,
Cc1ccc(CNC(=O)c2ccc(N3CCCC3)c(NC(=O)Nc3ccc(C)cc3)c2)cc1,inactive: 3.43%,
Cc1ccc(CNC(=O)C(=O)Nc2c3c(nn2-c2ccc(F)cc2)CSC3)cc1,inactive: -14.3%,
Cc1ccc(NC(=O)CN2C(=O)COc3ccc(S(=O)(=O)N4CCCCCC4)cc32)c(C)c1,inactive: -12.9%,
CCCc1cc(=O)oc2c3c(ccc12)OCN(Cc1ccccc1OC)C3,inactive: -7.03%,
CN(C(=O)Cn1nc(Cc2cccnc2)c2ccccc2c1=O)c1cccc(C(F)(F)F)c1,inactive: -14.3%,
CCOc1ccc(N(C)C(=O)c2oc(=O)c3ccccc3c2-c2ccccc2)cc1,inactive: -38.1%,
CCc1ccc(-c2nc(CS(=O)CC(=O)NCCc3ccc(C)cc3)c(C)o2)cc1 (stereo not given),inactive: -11.8%,
CC(C)c1cnc2c(c1SCC(=O)NC(C)(C)C)c(=O)n(C)c(=O)n2C,inactive: -1.93%,
CCn1cc2c(n1)-c1c(oc(C(=O)Nc3ccc(Br)cc3F)c1C)CC2,inactive: 16.8%,
O=C(O)CC1c2ccccc2CCN1C(=O)Nc1cc(Cl)ccc1Cl (stereo not given),inactive: -8.73%,
Cc1ccc(N(CC(=O)N2CCN(c3cc(C)ccc3C)CC2)S(=O)(=O)c2c(C)nn(C)c2C)cc1,inactive: -44.2%,
Cc1ccc(CN(C(=O)c2ccc(OCC(C)C)cc2)c2ccccn2)o1,inactive: 4.74%,
CCOC(=O)c1noc2nc(C)n(CC(=O)Nc3cccc(OC)c3)c(=O)c12,inactive: -13%,

Structure (SMILES),"activity change, positive = activation",Potency
CCCCN(CC)C(=O)CSc1nc2n[nH]c(C)c2c(=N)n1-c1ccc(CC)cc1,inactive: -43.6%,
CCOc1ccc(-c2cccc(NS(=O)(=O)c3ccc(C)s3)c2)nn1,inactive: -15.4%,
COc1ccc(NC(=O)CSc2ncc3c(n2)-c2ccccc2N(Cc2ccc(C)cc2)S3(=O)=O)cc1Cl,inactive: -42%,
Cc1ccc(N(C)C(=O)c2sc3nc4n(c(=O)c3c2C)CCCC4)cc1C,inactive: -17.9%,
COCCCn1c(=O)c2sccc2n2c(CCCC(=O)NCc3cccc(OC)c3)nnc12,inactive: 1.13%,
CN(C)CC[C@@H](c1ccc(Cl)cc1)c1ccccn1,inactive: -0.476%,
CCN1C(=O)c2ccccc2S(=O)(=O)c2ccc(C(=O)NCc3ccccc3)cc21,inactive: -20.2%,
O=C(CSc1ncc(-c2ccccc2)[nH]1)Nc1ccccc1,inactive: 9.9%,
CCOC(=O)C1CCN(C(=O)c2ccccc2NC(=O)c2nsc3ccccc23)CC1,inactive: -15.6%,
CCOc1ccc(NS(=O)(=O)c2c(C)nc3sc(C)c(C)n3c2=O)cc1,inactive: -39.3%,
CCOC(=O)C1CCC(CN(Cc2ccc(Cl)cc2)S(=O)(=O)c2cccc(Cl)c2C)CC1 (stereo not given),inactive: -29.6%,
Cc1nc2nc(NC(=O)c3ccc(C(C)(C)C)cc3)[nH]n2c(=O)c1C,inactive: -5.35%,
CCCCOc1ccc(C(=O)Nc2ccc3c(c2)CCCN3C(=O)c2cccs2)cc1,inactive: -38.5%,
O=C(CCC1N=C2c3ccccc3N=C(SCC(=O)Nc3cccc(Cl)c3)N2C1=O)NCc1ccco1 (stereo not given),inactive: -11.3%,
NC(=O)C1CCN(S(=O)(=O)c2cc3c(cc2Cl)NC(=O)CO3)CC1,inactive: -4.6%,
COC(=O)c1ccccc1NC(=O)[C@H]1O[C@@H]2OC(C)(C)O[C@@H]2[C@H]2OC(C)(C)O[C@H]21,inactive: -11.8%,
Cc1cc(C)cc(OCC(=O)Nc2cccc3cccnc23)c1,inactive: -1.08%,
CCCCCCC(=O)Nc1ccc2nc3c(=O)n(C)c(=O)n(C)c3nc2c1C,inactive: 0.447%,
CCCc1cnc2c(c1SCC(=O)NCc1ccc(C)cc1)c(=O)n(C)c(=O)n2C,inactive: -10.8%,
CCOC(=O)c1ccc(N2C(=O)c3n[nH]c(-c4ccco4)c3C2c2ccc(C(=O)OC)cc2)cc1 (stereo not given),inactive: -39.7%,
CC(=O)Nc1cccc(-c2nc(-c3ccccc3)no2)c1,,active: 1.12 µM
O=C(c1ccc2c(c1)N(Cc1ccc(Cl)cc1)C(=O)c1ccccc1S2(=O)=O)N1CCCC1,inactive: -40.9%,
COc1ccccc1CCNC(=O)Cc1c(C)c2cc(Cl)c(O)cc2oc1=O,inactive: -8.96%,
CCCCOc1ccccc1C1CC(=O)Nc2ccc3ccccc3c21 (stereo not given),inactive: -27.5%,

Structure (SMILES),"activity change, positive = activation",Potency
CC(C)c1ccc(S(=O)(=O)N2CCN(Cc3cccc(F)c3)CC2)cc1,inactive: -23.9%,
CC(=O)OCC(=O)[C@@]1(O)CCC2C3CCC4=CC(=O)CC[C@]4(C)C3[C@@H](O)C[C@@]21C (stereo not given in full),inactive: -15.2%,
CCOc1ccc(CNC(=O)c2oc3c(c2C)-c2nn(Cc4cccc(Cl)c4)cc2CC3)cc1,inactive: -30.7%,
COc1ccc(C)c2sc(NC(=O)c3ccc(S(=O)(=O)N(C)C)cc3)nc12,inactive: -1.84%,
Cc1cc(NC(=O)N2CCC(CN3CCCCCC3)CC2)ccc1Br,inactive: 17.1%,
COc1cccc(NC(=O)c2c(C)nn(-c3cccc(C)c3)c2-n2cccc2)c1,inactive: -21.5%,
O=C(Cn1ccc2cc(S(=O)(=O)N3CCCCCC3)ccc21)NCc1ccccc1Cl,inactive: -36.3%,
COC(=O)c1ccc2c(=O)n(CCCCCC(=O)NCCc3ccccc3)c(=O)[nH]c2c1,inactive: 2.95%,
CN(CCOc1ccc(CC2SC(=O)NC2=O)cc1)c1ccccn1 (stereo not given),inactive,
CCC1Sc2ccccc2N(CC(=O)NCc2ccc(C)cc2)C1=O (stereo not given),inactive: 10.4%,
O=S(=O)(c1ccc(Cl)cc1)c1nnn2c1nc(NC1CCCC1)c1sccc12,inactive: -16.4%,
Cc1noc2ncnc(N3CCN(c4cccc(C(F)(F)F)c4)CC3)c12,inactive: -45.1%,
COc1ccc(N2CCN(C(CNS(=O)(=O)c3ccc(OC)c(C)c3)c3ccco3)CC2)cc1 (stereo not given),inactive: -33.1%,
Cc1cccn2c(=O)c3cc(C(=O)NCC(C)C)sc3nc12,inactive: -7.4%,
COc1ccc(C)cc1-n1c(-c2ccc(Cl)cc2)cc2c1CC(C)(C)CC2=O,inactive: -9.23%,
COc1ccc(-c2nc(Cn3c(=O)cc(C)c4c(C)nn(-c5ccccc5)c43)c(C)o2)cc1OC,inactive: -7.57%,
Nc1c(C(=O)Nc2ccccc2Br)sc2nc(-c3cccs3)ccc12,inactive: -10.2%,
O=C(CSc1nc2c([nH]c3ccccc32)c(=O)n1-c1ccccc1)Nc1ccc2c(c1)OCO2,inactive: -23.8%,
CN1CCN(CCC(=O)N2c3ccccc3Sc3ccc(C(F)(F)F)cc32)CC1,inactive: -21.6%,
CCc1ccc(OCC2c3cc(OC)c(OC)cc3CCN2C(=O)c2ccc(S(=O)(=O)N3CCCC3)cc2)cc1 (stereo not given),inactive: -18.1%,
CCn1cc(C(=O)NCCCOC(C)C)c(=O)c2cc(S(=O)(=O)N3CCOCC3)ccc21,inactive: -9.35%,
CCOC(=O)c1cnc2c(ccc3ccccc32)c1Nc1ccc(N(C)C)cc1,inactive: -9.86%,
CCCN(C(=O)c1cc(S(=O)(=O)N2CCc3ccccc32)cn1C)c1ccc(OCC)cc1,inactive: -37.4%,
Cc1ccc(Cl)cc1N1CCN(c2ncnc3c2nc2n3CCCC2)CC1,inactive: -5.32%,

Structure (SMILES),"activity change, positive = activation",Potency
Cc1ccccc1NC(=O)C(=O)NCC(c1ccc2c(c1)OCO2)N1CCN(c2ccccc2)CC1 (stereo not given),inactive: -13.1%,
CCOc1ccc(C2C(C(=O)Nc3ccccc3)=C(C)Nc3nc(-c4ccccc4Cl)nn32)cc1OC (stereo not given),inactive: -19.6%,
COc1ccc(CNC(=O)Cn2c(=O)oc3cc(S(=O)(=O)NCc4ccccc4)ccc32)cc1,inactive: -31.5%,
CCOc1ccc(Nc2cc(C)nc3nncn23)cc1,inactive: -16.2%,
Cc1ccccc1NC(=O)Cn1cc(S(=O)(=O)c2ccccc2)c(=O)c2ccccc21,inactive: -1.27%,
NC1=N[C@H]2[C@H](CS[C@H]2CCCCC(=O)O)N1,"inactive: -10.2% [at 25.1 µM, percent change from vehicle, -100% = no light]",
COc1ccc(NC(=O)c2cc3c(-c4ccccc4F)nn(C)c3s2)c(OC)c1,inactive: -15.2%,
CCC(C)NC(=O)c1cc(Sc2cccc(Cl)c2)nc2ccccc12 (stereo not given),inactive: -18.3%,
FC(F)(F)c1cccc(N2CCN(c3ncnc4c3nc3n4CCCC3)CC2)c1,inactive: -89.3%,
O=C(Cn1nc(C(F)(F)F)c2c1CCCC2)Nc1cccc(Cl)c1,inactive: -51.6%,
CCCn1c2ccccc2c2cnn(CC(=O)NCCCN3CCCCC3CC)c(=O)c21 (stereo not given),inactive: -18.4%,
Cc1ccc(NC(=O)Cn2c(=O)n(-c3ccc(C)cc3)c(=O)c3c2cnn3C)cc1,inactive: -12.3%,
Cc1ccc(Cc2nc3ccccc3nc2SCC(=O)N2CCC(C)CC2)cc1,inactive: -37.3%,
Cc1ccc(-n2nc(C)c3c(C)c(CCC(=O)NC(C)c4ccccc4)c(C)nc32)cc1 (stereo not given),inactive: -1.01%,
Fc1ccc(CN2CCc3nc(N4CCN(c5ccccc5F)CC4)ncc3C2)c(F)c1,inactive: -27.6%,
CCOc1ccc(NC(=O)c2c(C)oc3nc(C)nc(N4CCCC4)c23)cc1,inactive: -12.4%,
COc1cccc(C(=O)Nc2ccc3nc(SCC(=O)N(C)c4ccccc4)sc3c2)c1,inactive: -50.2%,
Cc1ccc(CNC(=O)c2ccc(CSc3nc4ccncc4n3Cc3ccc(C)cc3)cc2)cc1,inactive: -31.9%,
COc1ccc(CCNC(=O)CCc2cn(Cc3ccccc3Cl)c3ccccc23)c(OC)c1,inactive: -13.3%,
O=C(NCCc1ccc(Cl)cc1)C1CCN(Cc2cc3ccccc3n2Cc2ccccc2)CC1,inactive: -28.1%,
CCOc1ccc(-c2cc(NC(=O)c3ccccc3)c(C(=O)OC)s2)cc1,inactive: -3.86%,
COc1ccccc1CCNC(=O)c1cccn1-c1nnc(N2CCCC2)s1,inactive: -4.51%,
Cc1cc(C)c(NC(=O)Cn2c(=O)oc3cc(S(=O)(=O)N4CCCCCC4)ccc32)c(C)c1,inactive: -42.5%,
